Experimental data: article PMC11431868
No constants are given. Whether binding was seen depends on the method and setting. In cells and extracts the contact can be indirect. Some results given as binding are weak or reduced against the parent protein; the word gives no strength.

Sequences of proteins named here, by UniProt entry; tags and fusion partners are left off.
UniProt Q8BX17: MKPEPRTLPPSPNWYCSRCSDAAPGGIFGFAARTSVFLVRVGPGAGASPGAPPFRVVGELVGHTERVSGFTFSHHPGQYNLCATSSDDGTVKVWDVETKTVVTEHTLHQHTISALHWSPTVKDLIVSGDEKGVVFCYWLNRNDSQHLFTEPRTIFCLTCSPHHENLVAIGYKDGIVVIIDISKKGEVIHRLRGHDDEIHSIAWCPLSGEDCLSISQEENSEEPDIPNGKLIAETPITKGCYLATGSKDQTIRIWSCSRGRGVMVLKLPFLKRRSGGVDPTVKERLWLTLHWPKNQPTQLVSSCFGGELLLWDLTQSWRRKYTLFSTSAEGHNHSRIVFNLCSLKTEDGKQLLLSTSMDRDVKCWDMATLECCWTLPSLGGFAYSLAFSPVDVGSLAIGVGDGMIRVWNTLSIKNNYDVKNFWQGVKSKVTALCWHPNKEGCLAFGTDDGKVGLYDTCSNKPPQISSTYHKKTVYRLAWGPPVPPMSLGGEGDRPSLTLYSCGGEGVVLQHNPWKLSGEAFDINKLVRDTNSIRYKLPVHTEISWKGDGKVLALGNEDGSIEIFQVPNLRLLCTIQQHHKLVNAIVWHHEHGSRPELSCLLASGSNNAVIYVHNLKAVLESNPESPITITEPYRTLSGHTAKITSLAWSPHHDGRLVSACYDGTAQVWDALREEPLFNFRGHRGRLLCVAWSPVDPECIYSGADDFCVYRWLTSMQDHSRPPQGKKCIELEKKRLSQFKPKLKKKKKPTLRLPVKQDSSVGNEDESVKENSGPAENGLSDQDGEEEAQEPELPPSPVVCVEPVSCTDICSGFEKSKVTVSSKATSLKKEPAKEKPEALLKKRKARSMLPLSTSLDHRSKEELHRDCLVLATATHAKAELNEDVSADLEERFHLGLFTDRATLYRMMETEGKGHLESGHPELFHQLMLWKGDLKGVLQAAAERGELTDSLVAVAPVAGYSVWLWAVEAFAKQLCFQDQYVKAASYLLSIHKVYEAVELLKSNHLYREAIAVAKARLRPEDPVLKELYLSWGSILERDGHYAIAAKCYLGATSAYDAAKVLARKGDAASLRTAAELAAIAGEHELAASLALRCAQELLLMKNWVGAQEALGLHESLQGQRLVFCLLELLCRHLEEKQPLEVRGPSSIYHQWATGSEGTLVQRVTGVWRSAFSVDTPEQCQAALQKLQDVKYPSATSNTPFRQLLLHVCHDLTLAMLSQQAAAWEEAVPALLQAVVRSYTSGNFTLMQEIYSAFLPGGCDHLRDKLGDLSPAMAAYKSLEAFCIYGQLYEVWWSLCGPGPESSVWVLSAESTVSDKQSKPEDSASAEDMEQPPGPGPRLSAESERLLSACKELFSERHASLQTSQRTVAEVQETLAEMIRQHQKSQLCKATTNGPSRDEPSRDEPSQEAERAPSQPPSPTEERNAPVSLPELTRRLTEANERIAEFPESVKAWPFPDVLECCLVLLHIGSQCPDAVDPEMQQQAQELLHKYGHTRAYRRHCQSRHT
UniProt P97801: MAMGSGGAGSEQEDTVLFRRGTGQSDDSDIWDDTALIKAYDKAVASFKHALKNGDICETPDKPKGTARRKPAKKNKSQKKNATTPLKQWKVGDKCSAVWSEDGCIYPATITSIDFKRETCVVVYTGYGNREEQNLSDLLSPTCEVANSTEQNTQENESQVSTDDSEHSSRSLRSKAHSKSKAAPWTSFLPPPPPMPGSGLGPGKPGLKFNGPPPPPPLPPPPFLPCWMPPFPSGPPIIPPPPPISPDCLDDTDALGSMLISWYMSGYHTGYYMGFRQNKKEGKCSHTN
UniProt Q9QZR5: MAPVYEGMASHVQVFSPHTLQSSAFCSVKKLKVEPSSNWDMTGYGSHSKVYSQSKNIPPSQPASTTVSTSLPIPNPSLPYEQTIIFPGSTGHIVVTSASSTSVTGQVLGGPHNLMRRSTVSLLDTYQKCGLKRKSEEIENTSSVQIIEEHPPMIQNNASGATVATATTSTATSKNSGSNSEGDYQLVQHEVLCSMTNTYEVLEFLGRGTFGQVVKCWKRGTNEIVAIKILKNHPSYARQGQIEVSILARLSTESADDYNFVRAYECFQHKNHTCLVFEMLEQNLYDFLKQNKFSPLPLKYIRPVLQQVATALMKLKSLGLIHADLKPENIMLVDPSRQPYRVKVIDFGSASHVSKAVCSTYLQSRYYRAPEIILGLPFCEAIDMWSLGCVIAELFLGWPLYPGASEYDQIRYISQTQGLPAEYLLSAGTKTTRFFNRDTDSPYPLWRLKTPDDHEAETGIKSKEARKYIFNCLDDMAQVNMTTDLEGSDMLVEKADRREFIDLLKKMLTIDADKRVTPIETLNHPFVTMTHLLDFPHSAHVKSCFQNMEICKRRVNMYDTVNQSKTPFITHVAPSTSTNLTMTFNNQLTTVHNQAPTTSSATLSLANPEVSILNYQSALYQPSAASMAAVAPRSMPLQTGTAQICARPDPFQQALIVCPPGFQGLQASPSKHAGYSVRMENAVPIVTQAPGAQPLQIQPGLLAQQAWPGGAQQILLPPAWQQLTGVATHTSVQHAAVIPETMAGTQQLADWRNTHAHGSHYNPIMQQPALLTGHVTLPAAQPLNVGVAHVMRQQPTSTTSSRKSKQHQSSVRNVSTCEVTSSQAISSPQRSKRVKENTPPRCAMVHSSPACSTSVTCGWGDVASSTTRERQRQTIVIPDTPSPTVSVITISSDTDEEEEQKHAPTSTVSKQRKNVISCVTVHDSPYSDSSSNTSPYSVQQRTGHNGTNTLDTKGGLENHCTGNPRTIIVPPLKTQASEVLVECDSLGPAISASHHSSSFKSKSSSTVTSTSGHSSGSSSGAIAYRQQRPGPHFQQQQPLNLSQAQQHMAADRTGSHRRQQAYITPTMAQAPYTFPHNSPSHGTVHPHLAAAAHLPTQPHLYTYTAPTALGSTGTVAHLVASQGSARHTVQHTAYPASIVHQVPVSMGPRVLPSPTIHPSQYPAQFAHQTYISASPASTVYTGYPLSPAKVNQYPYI
UniProt Q9JJY4: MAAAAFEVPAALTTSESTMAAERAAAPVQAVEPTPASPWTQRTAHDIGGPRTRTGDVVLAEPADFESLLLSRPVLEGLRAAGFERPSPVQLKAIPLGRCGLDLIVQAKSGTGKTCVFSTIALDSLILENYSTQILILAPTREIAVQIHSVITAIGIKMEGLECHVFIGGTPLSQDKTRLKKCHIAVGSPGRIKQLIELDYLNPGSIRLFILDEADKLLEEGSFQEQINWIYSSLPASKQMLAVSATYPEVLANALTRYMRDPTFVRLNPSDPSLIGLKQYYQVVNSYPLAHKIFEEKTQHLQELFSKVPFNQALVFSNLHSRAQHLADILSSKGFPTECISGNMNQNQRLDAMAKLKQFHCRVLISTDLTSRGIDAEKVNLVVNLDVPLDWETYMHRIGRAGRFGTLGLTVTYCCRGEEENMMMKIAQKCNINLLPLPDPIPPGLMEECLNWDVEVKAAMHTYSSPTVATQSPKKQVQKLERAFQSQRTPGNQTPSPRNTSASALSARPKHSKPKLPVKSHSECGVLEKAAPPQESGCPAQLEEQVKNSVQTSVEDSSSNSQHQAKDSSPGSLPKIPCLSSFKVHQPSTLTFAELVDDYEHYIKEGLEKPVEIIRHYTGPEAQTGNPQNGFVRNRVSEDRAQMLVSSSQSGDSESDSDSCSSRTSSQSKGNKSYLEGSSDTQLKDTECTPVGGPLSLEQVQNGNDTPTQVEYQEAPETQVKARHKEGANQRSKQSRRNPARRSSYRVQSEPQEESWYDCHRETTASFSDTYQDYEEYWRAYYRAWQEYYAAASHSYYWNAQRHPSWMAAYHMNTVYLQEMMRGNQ
UniProt Q921F2: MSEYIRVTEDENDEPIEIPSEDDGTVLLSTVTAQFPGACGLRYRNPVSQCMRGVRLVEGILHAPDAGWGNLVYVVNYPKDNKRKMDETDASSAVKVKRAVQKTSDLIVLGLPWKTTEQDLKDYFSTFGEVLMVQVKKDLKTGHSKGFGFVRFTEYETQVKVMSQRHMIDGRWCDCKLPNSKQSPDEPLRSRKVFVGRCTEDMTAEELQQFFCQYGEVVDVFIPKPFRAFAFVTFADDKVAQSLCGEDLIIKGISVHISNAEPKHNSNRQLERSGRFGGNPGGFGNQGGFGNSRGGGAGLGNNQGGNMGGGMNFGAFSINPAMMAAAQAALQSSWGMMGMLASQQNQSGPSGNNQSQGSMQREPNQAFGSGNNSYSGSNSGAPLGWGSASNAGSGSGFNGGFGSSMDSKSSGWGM

B1: GEMIN8 (protein, UniProt Q8BHE1 1-238)
chain: MASNWRASASWYSHPVYARYWQHYHHAMLWMQGHQNAYRKFRDSYFTSPWLFPHGALPWNSPAYEAGHPWDSQGQHMAQQESPYRVSHPKSPGQPLRNSSRTQASTRGNEARCEEEELESDSDDEVECDLSNMEITEELRQYFAQTERHREERRRQQQLDAERLNDYVNADHGLYFNHRRSLEPPSEKPWERRQAEMKRLYGNSAPKILAMETAVQLSFDKHCDRKQPKYWPVIPLKF
B2: STRAP (protein, UniProt Q9Z1Z2 1-350)
chain: MAMRQTPLTCSGHTRPVVDLAFSGITPYGYFLISACKDGKPMLRQGDTGDWIGTFLGHKGAVWGATLNKDATKAATAAADFTAKVWDAVSGDELMTLAHKHIVKTVDFTQDSNYLLTGGQDKLLRIYDLNKPEAEPKEISGHTSGIKKALWCSDDKQILSADDKTVRLWDHATMTEVKSLNFNMSVSSMEYIPEGEILVITYGRSIAFHSAVSLEPIKSFEAPATINSASLHPEKEFLVAGGEDFKLYKYDYNSGEELESYKGHFGPIHCVRFSPDGELYASGSEDGTLRLWQTVVGKTYGLWKCVLPEEDSGELAKPKIGFPETAEEELEEIASENSDSIYSSTPEVKA
B3: DUSP6 (protein, UniProt Q9DBB1 1-381)
chain: MIDTLRPVPFASEMAICKTVSWLNEQLELGNERLLLMDCRPQELYESSHIESAINVAIPGIMLRRLQKGNLPVRALFTRCEDRDRFTRRCGTDTVVLYDENSSDWNENTGGESVLGLLLKKLKDEGCRAFYLEGGFSKFQAEFALHCETNLDGSCSSSSPPLPVLGLGGLRISSDSSSDIESDLDRDPNSATDSDGSPLSNSQPSFPVEILPFLYLGCAKDSTNLDVLEEFGIKYILNVTPNLPNLFENAGEFKYKQIPISDHWSQNLSQFFPEAISFIDEARGKNCGVLVHCLAGISRSVTVTVAYLMQKLNLSMNDAYDIVKMKKSNISPNFNFMGQLLDFERTLGLSSPCDNRVPTPQLYFTTPSNQNVYQVDSLQST

Molecular target: GEMIN5 (mouse (endogenous in NSC34)) (UniProt Q8BX17)
Test: co-IP; anti-GEMIN5 (GTX130498) on Dynabeads protein A, incubated overnight with 2500-3000 ug of extracts of NSC34 cells treated with DMSO or flunarizine for 2 h; lysis and wash buffer 25 mM Tris-HCl pH 7.4, 150 mM KCl, 1% NP40, 5 mM EDTA, 0.5 mM DTT, RNAse out; not cross-linked; control IgG; read by immunoblot

Q: With SMN (from UniProt P97801 1-288) as the molecule, how does the binding read?
A: binds

Q: With HIPK2 (from UniProt Q9QZR5 1-1196) as the molecule, how does the binding read?
A: binds

Q: How did the binding turn out when GEMIN3 (from UniProt Q9JJY4 1-825) was run?
A: no binding

Q: TDP-43 (from UniProt Q921F2 1-414) was tested. Which binding did it give?
A: binds

Q: With B1 as the molecule, how does the binding read?
A: binds

Q: How did the binding turn out when B2 was run?
A: no binding

Q: Which binding does the source give for B3 here?
A: no binding
